± gives the standard deviation of the averaged measurements. This is one part of the list.
tested on: PfAP2-EXP AP2 domain (GST-tagged); test: gcPBM binding intensity (ln(normalized median fluorescence intensity)); higher = stronger DNA binding
How it was run: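 Probes on an Agilent 4 × 180k array were primer-extended, double-stranded and 36 bp long, taken from intergenic genomic regions, with negative controls added. GST-tagged P. falciparum DNA-binding domains from E. coli, about 25 μg on average, were applied to the array for 1 h in 1× PBS containing 1% milk, 0.2 mg/ml BSA, 0.5% salmon testes DNA and 0.03% Triton X-100. Binding intensity, obtained after Alexa488 anti-GST antibody detection and a 488 nm scan, is the highest Masliner-normalised natural-log median intensity across replicate spots of either probe orientation.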

Sequence | gcPBM binding intensity (ln)
ATATATATTATAAAATGTACAAATGTTATATAAAAT [XGTACX_site4750] | 8.85 ± 0.45
TATAATGTTGATAATAGTACGTATGAGTTCAAAAAA [XGTACX_site988] | 8.64 ± 0.46
AAATAGAGAAATACAAGTACATACTAAACCAATCTA [XGTACX_site2780] | 8.64 ± 0.48
TTCTTTGTAGTATATTAACACACAACTGTTTATAAT [CACACA_site9305] | 8.64 ± 0.38
CAAATCAAAATTAATTAACACACAATTTTAATATTC [CACACA_site8641] | 8.22 ± 0.4
AAAGGATATAATACCATACACACATTTATAAAATAA [CACACA_site1931] | 8.69 ± 0.29
AAAAGAAAATATATGTGTACTAAAATATATATATAT [XGTACX_site3817] | 9.99 ± 0.29
ACTTTTATTCGCTTACGTACATATATTATATATTAT [XGTACX_site4459] | 9.49 ± 0.68
TACCTACACTTTTGGAGTACAATTAAAAAAAAAAAA [XGTACX_site1403] | 8.31 ± 0.38
TTTAAAGTAATAAAGTGTACAAAAATAAATTCAGCT [XGTACX_site8651] | 9.03 ± 0.54
GTTTATTAAACATTAGTGCAATTTTAATCCATTCTA | 8.27 ± 0.29
TTAATCCTTTTTAAAAGTACACATATATATATATAT [XGTACX_site962] | 10.2 ± 0.38
TATATATATATATAATGTACAGAAAAAAAAAAAAAA [XGTACX_site6141] | 9.95 ± 0.17
ATATTATATATTTGATGTACATTGAATGAGAGAGAA [XGTACX_site3324] | 9.08 ± 0.2
AAATCATGTTGAAGGGGTACAAAATATGTAATGTTG [XGTACX_site6222] | 8.77 ± 0.36
ATAATAAATGATAGCACACATATGTACATAAATACA [CACACA_site4634] | 8.93 ± 0.33
AACATATAAAAATGTGCACACACACCCATATATATA [CACACA_site1525] | 8.79 ± 0.15
TATCTTAACAATTAGTGTACAGATAACCAATTAAAA [XGTACX_site3184] | 8.32 ± 0.42
CTTTGTGGTATAGATACACACTATATTAAGATGAAC [CACACA_site5215] | 8.34 ± 0.41
TAAAATAAAAATATAGTGCACAGATTTTGATATTTT [GTGCAC_site9696] | 8.69 ± 0.092
CACATTATGTATCATACACACAAATAGATATATAAC [CACACA_site6434] | 8.72 ± 0.38
TGAAGGTTTCAAAAACGTACAAAAAAAAATGTTAGT [XGTACX_site8803] | 8.78 ± 0.55

Sequence | gcPBM binding intensity (ln)
TTTAGAAATAAATACACACATACATTTTTGTATACA [CACACA_site718] | 8.21 ± 0.38
TTTTTTTTTTATGGTACACACACGCGTATGGTTGCA [CACACA_site1876] | 8.71 ± 0.42
TGAAAAAAAAAATGCACACGCATACAGATAATATGT [CACACA_site4526] | 8.78 ± 0.48
AATAATAATAGAAACACACACACATTTTTAAGAATA [CACACA_site6692] | 8.62 ± 0.56
ATTATTGCAATTTAATGTACATAATACAAATTTGCC [XGTACX_site2729] | 8.87 ± 0.37
AATGAATAAATAAACACACACACATATATATATATG [CACACA_site18] | 8.84 ± 0.46
TATATTCAAAAAAATTCATTTCTGATTTTTTTTTTT [CACACA_negctrl_site1085] | 8.1 ± 0.55
TATACGTATACCTATACACACATATATATATATATA [CACACA_site1273] | 9.97 ± 0.42
GATGAAATATCATTACGTACACAATAGTTTGTATTT [XGTACX_site5143] | 8.47 ± 0.26
CTTGTGCTTTATAGGGTGCACATTTTGTTTTGGTAA [GTGCAC_site9899] | 9.73 ± 1
TGAACACATACATACACACACACAAAAAAAAAAAAA [CACACA_site392] | 8.27 ± 0.59
TTATTAATTATATATAGTACACATTTCACAGATGGG [XGTACX_site2349] | 8.61 ± 0.33
TTTTTTTTTTTTTTTGGTACACATTTTGGTTAATGG [XGTACX_site5109] | 7.895 ± 0.064
AAAATTATGCAGTAGGTGCAATACCCTCGGCTTTTT [GTGCAC_site9556] | 8.59 ± 0.19
ATAAAAAGGTTTAAAAAAAAAAAAAAAAAAAAAAAA [CACACA_negctrl_site412] | 7.96 ± 0.38
AATAATAATTTAAAAAGTACATTCTAATAAACACGT [XGTACX_site1444] | 8.72 ± 0.42
TACTTATTTGATTGGGTGCATATATATAGTATGTAT [GTGCAC_site9845] | 8.97 ± 0.11
AATATCTGAAAATAAAGTACAAACATATTATAAATA [XGTACX_site5738] | 8.57 ± 0.33
TATTTCAAATGTTATGTGCACATATTAATCCTACTT [GTGCAC_site9738] | 8.71 ± 0.32
AAATAAAATAAAATAAAATAAAATAAAATAAAATAA [XGTACX_negctrl_site142] | 8.49 ± 0.28
AAAAAAAAACACGCATGTACATAAAAATAATCATAC [XGTACX_site1086] | 8.96 ± 0.3
TTATTTATGAGGGTGACACACAAAAGAGTGTTAAGA [CACACA_site277] | 8.44 ± 0.36

Sequence | gcPBM binding intensity (ln)
TTATGGAAAAATATAACACACAATGATTTTTTATAA [CACACA_site1831] | 8.26 ± 0.35
ATTTATATAAAATTAAAATAATACAAATTTATTCAT [GTGCAC_negctrl_site305] | 8.12 ± 0.46
TTTTCGCTTTTATAAAATTATATGAAAAAACTAAAA [XGTACX_negctrl_site139] | 8.22 ± 0.47
CCACTAAAGGCATATACACACATTTTTTAAATTGCC [CACACA_site2839] | 8.67 ± 0.47
TACACAAAAATAAACACACACACATATAAATAAATA [CACACA_site6599] | 8.67 ± 0.52
TATTGTAAAAAAGCAAAATTTATCACCTCCTTATTT [CACACA_negctrl_site172] | 8.23 ± 0.4
TATAACTATGGGTGTACACATTAATCGTTTTTCTTT [CACACA_site5196] | 8.58 ± 0.3
TGTAATACATGTTGTTGTACAATATCTTTAACTTTT [XGTACX_site1219] | 8.62 ± 0.38
TTTTTTACATTCTGCACACAATTTATTTTTTTTTTT [CACACA_site4188] | 8.8 ± 0.34
ATGAATGAATACGTTTTACACACTTGAATATAATTT [CACACA_site8237] | 8.53 ± 0.4
AACATAACAAAAAAAAAAAAAAATATATATATATAT [TGCATGCA_negctrl_site370] | 10.2 ± 0.41
TATTTCACAAAAAAAAAAAAAAAAAAGAAGCAAAAA [CACACA_negctrl_site1040] | 8.32 ± 0.47
GTATATTGTACCATCACACATGTAAAACATAGATGT [CACACA_site5359] | 8.51 ± 0.26
TCCTTAAAAAAACCTTAACACACATAAACTATAATT [CACACA_site9001] | 8.4 ± 0.45
TTTTTTTTTAAGTTTGCACACATGGAAGACAAAAAT [CACACA_site2505] | 8.9 ± 0.37
TAATACATAAATAATGTGCACATGGAAATATATCTT | 9.04 ± 0.28
AAAAAAAAAAAAAAATCACACACAATATGAATTTAT [CACACA_site8100] | 8.28 ± 0.38
TATTTTATATACAGTGGTACTTTTTTTTTTTTTTTT [XGTACX_site2475] | 8.44 ± 0.29
AATTGCTTCAAAATTAAACACACACTAATAAAAAAA [CACACA_site8855] | 8.56 ± 0.49
AAAAAAAAAAAAAAAACACACATTTGAAGAAAAAAA [CACACA_site7389] | 8.57 ± 0.26
ACATATATATTATAAGCATGCATGAGAAAATTTTTA [TGCATGCA_site1054] | 9.4 ± 0.33
TAGAAACTATGTAATGCACACCAAAATAAAATTATT [CACACA_site8578] | 8.56 ± 0.41

Sequence | gcPBM binding intensity (ln)
TTTTAAAAAATAAAATATTATTGAAGTAAAATATGA [CACACA_negctrl_site758] | 8.37 ± 0.39
TTTTGGATACTTCATTTGTCCTGTTTTTTTTTTTTA [CACACA_negctrl_site399] | 8.63 ± 0.55
AAAATATATCAAAACACACTCACATATAATACTTAC [CACACA_site6031] | 8.57 ± 0.26
TATATACTTATATACTGTACTCATCATCTTTTAAAG [XGTACX_site6099] | 8.55 ± 0.43
TAATATATCTATAATACACACTATTCTAATCACATA [CACACA_site6731] | 8.29 ± 0.32
TTTTTTTTTTTTTAAACATGCAAAATATATAATTTT [TGCATGCA_site633] | 8.46 ± 0.36
ATAATAAACATATATGTACACACATATACATATATA [CACACA_site8924] | 8.47 ± 0.21
AACACACACATATATATATATATATATATATATATA [GTGCAC_negctrl_site573] | 10 ± 0.47
TTTTTAATATTGTATGCATGTCGTAATAAAAAATTT [TGCATGCA_site259] | 8.71 ± 0.23
ATATACTATTAACCACATATGTGTGTTAATTTATAT [GTGCAC_negctrl_site315] | 8.53 ± 0.27
ATATTAATTATAACTTGTACGTAAAAGGAAAACAAT [XGTACX_site3269] | 9.1 ± 0.41
TGCTATTTCATATTCTGTACTAAAACAAGATAATAA [XGTACX_site3852] | 8.56 ± 0.3
TTGAACCCCACTAACACACACACGCACGCTCAGAAA [CACACA_site2983] | 8.57 ± 0.51
ATATATATATATAGAAGTACTCTTATATATTTTATA [XGTACX_site1384] | 10 ± 0.63
AAAAAAAAAAAAAATACACACACATAAAAAAAAAAA [CACACA_site8555] | 8.47 ± 0.52
GATATGGAATATATGTGTACATATATATATATTATA [XGTACX_site1724] | 8.39 ± 0.26
CAAATTTTTAAAAATGCATGTTCATCCATCCCATAT [TGCATGCA_site467] | 8.8 ± 0.52
TTTGTATGATCATAAAGTACTAATTTACATTCAGCA [XGTACX_site8596] | 8.41 ± 0.44
AATTATATACCATGCACACAAATATTCATACAGGAA [CACACA_site4057] | 8.63 ± 0.47
ATATATGAAAATATATGTACACAACATATAAAATAG [XGTACX_site5132] | 8.73 ± 0.27
TTTTCATTCTTATATAAATATTATTTTATATAAAAT [GTGCAC_negctrl_site674] | 8.26 ± 0.3
AAAAATATATATATATTTCTTCTTTGTTAAAATGTA [CACACA_negctrl_site1459] | 8.31 ± 0.44
